From the supplement of paper PMC11741623
The other results are listed elsewhere or left out. Interaction screen of human proteins with wild-type SARS-CoV-2 proteins by split-DHFR complementation in yeast, 1 µg/mL methotrexate. Value = fitness of the pair (three or more lineages) minus that of the viral protein without a human partner, on a scale set by negative (0) and fused positive (1) controls, mean of up to three cultures; higher = more likely to interact. Active = false discovery rate below 0.05 (one-sided t-test) in at least one culture. Nearly all pairs are not hits, and differences among them are mostly noise (correlation between cultures about 0.3); most hits were seen in one culture only. Human sequences are the Swiss-Prot entries looked up by gene name; the clone may be another isoform. NSP2 values were corrected by the authors for a growth advantage. Listed are human proteins with a hit and a random twelfth of the others.

B1: LBH, Q53QV2 (protein)
chain: MSIYFPIHCPDYLRSAKMTEVMMNTQPMEEIGLSPRKDGLSYQIFPDPSDFDRCCKLKDRLPSIVVEPTEGEVESGELRWPPEEFLVQEDEQDNCEETAKENKEQ
B2: LURAP1, Q96LR2 (protein)
chain: MEGTVESQTPDLRDVEGKVGRKTPEGLLRGLRGECELGTSGALLLPGASSTGHDLGDKIMALKMELAYLRAIDVKILQQLVTLNEGIEAVRWLLEERGTLTSHCSSLTSSQYSLTGGSPGRSRRGSWDSLPDTSTTDRLDSVSIGSFLDTVAPSELDEQGPPGAPRSEMDWAKVIAGGERARTEVDVAATRLGSLRAVWKPPGERLQGGPPESPEDESAKLGFEAHWFWEQCQDDVTFL
B3: ORMDL1, Q9P0S3 (protein)
chain: MNVGVAHSEVNPNTRVMNSRGMWLTYALGVGLLHIVLLSIPFFSVPVAWTLTNIIHNLGMYVFLHAVKGTPFETPDQGKARLLTHWEQLDYGVQFTSSRKFFTISPIILYFLASFYTKYDPTHFILNTASLLSVLIPKMPQLHGVRIFGINKY
B4: PTPRCAP, Q14761 (protein)
chain: MALPCTLGLGMLLALPGALGSGGSAEDSVGSSSVTVVLLLLLLLLLATGLALAWRRLSRDSGGYYHPARLGAALWGRTRRLLWASPPGRWLQARAELGSTDNDLERQEDEQDTDYDHVADGGLQADPGEGEQQCGEASSPEQVPVRAEEARDSDTEGDLVLGSPGPASAGGSAEALLSDLHAFAGSAAWDDSARAAGGQGLHVTAL
B5: RBM4, Q9BWF3 (protein)
chain: MVKLFIGNLPREATEQEIRSLFEQYGKVLECDIIKNYGFVHIEDKTAAEDAIRNLHHYKLHGVNINVEASKNKSKTSTKLHVGNISPTCTNKELRAKFEEYGPVIECDIVKDYAFVHMERAEDAVEAIRGLDNTEFQGKRMHVQLSTSRLRTAPGMGDQSGCYRCGKEGHWSKECPIDRSGRVADLTEQYNEQYGAVRTPYTMSYGDSLYYNNAYGALDAYYKRCRAARSYEAVAAAAASVYNYAEQTLSQLPQVQNTAMASHLTSTSLDPYDRHLLPTSGAAATAAAAAAAAAAVTAASTSYYGRDRSPLRRATAPVPTVGEGYGYGHESELSQASAAARNSLYDMARYEREQYADRARYSAF

What was measured:
Assay in all cases: yeast fitness gain over the viral ORF with no human partner (scaled fitness); higher = more likely to interact
SARS-CoV-2 M = biological target: SARS-CoV-2 M
Method: (§1)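 Split mouse DHFR complementation in pooled diploid yeast: human ORFeome clones carry one fragment and viral ORFs the other; barcoded lineages compete in 1 µg/mL methotrexate and fitness is read by barcode sequencing in up to three cultures.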

SARS-CoV-2 NSP10 = biological target: SARS-CoV-2 NSP10
Method: as §1

SARS-CoV-2 NSP12 = biological target: SARS-CoV-2 NSP12
Method: as §1

SARS-CoV-2 NSP13 = biological target: SARS-CoV-2 NSP13
Method: as §1

SARS-CoV-2 NSP14 = biological target: SARS-CoV-2 NSP14
Method: as §1

SARS-CoV-2 NSP15 = biological target: SARS-CoV-2 NSP15
Method: as §1

SARS-CoV-2 NSP2 = biological target: SARS-CoV-2 NSP2
Method: as §1

SARS-CoV-2 NSP4 = biological target: SARS-CoV-2 NSP4
Method: as §1

SARS-CoV-2 NSP5 = biological target: SARS-CoV-2 NSP5
Method: as §1

SARS-CoV-2 NSP6 = biological target: SARS-CoV-2 NSP6
Method: as §1

SARS-CoV-2 NSP7 = biological target: SARS-CoV-2 NSP7
Method: as §1

SARS-CoV-2 NSP8 = biological target: SARS-CoV-2 NSP8
Method: as §1

SARS-CoV-2 NSP9 = biological target: SARS-CoV-2 NSP9
Method: as §1

SARS-CoV-2 ORF10 = biological target: SARS-CoV-2 ORF10
Method: as §1

SARS-CoV-2 ORF3B = biological target: SARS-CoV-2 ORF3B
Method: as §1

SARS-CoV-2 ORF6 = biological target: SARS-CoV-2 ORF6
Method: as §1

SARS-CoV-2 ORF7B = biological target: SARS-CoV-2 ORF7B
Method: as §1

SARS-CoV-2 ORF8 = biological target: SARS-CoV-2 ORF8
Method: as §1

SARS-CoV-2 ORF9B = biological target: SARS-CoV-2 ORF9B
Method: as §1

[1] = biological target: SARS-CoV-2 ORF9Bwu (the 73-codon ORF)
Method: as §1

SARS-CoV-2 S = biological target: SARS-CoV-2 S
Method: as §1

SARS-CoV-2 N = biological target: SARS-CoV-2 N
Method: as §1

SARS-CoV-2 NSP1 = biological target: SARS-CoV-2 NSP1
Method: as §1

SARS-CoV-2 NSP16 = biological target: SARS-CoV-2 NSP16
Method: as §1

SARS-CoV-2 ORF3A = biological target: SARS-CoV-2 ORF3A
Method: as §1

SARS-CoV-2 ORF7A = biological target: SARS-CoV-2 ORF7A
Method: as §1

| Binder | yeast fitness gain (SARS-CoV-2 M) | yeast fitness gain (SARS-CoV-2 NSP10) | yeast fitness gain (SARS-CoV-2 NSP12) | yeast fitness gain (SARS-CoV-2 NSP13) | yeast fitness gain (SARS-CoV-2 NSP14) | yeast fitness gain (SARS-CoV-2 NSP15) | yeast fitness gain (SARS-CoV-2 NSP2) | yeast fitness gain (SARS-CoV-2 NSP4) | yeast fitness gain (SARS-CoV-2 NSP5) | yeast fitness gain (SARS-CoV-2 NSP6) | yeast fitness gain (SARS-CoV-2 NSP7) | yeast fitness gain (SARS-CoV-2 NSP8) | yeast fitness gain (SARS-CoV-2 NSP9) | yeast fitness gain (SARS-CoV-2 ORF10) | yeast fitness gain (SARS-CoV-2 ORF3B) | yeast fitness gain (SARS-CoV-2 ORF6) | yeast fitness gain (SARS-CoV-2 ORF7B) | yeast fitness gain (SARS-CoV-2 ORF8) | yeast fitness gain (SARS-CoV-2 ORF9B) | yeast fitness gain [1] | yeast fitness gain (SARS-CoV-2 S) | yeast fitness gain (SARS-CoV-2 N) | yeast fitness gain (SARS-CoV-2 NSP1) | yeast fitness gain (SARS-CoV-2 NSP16) | yeast fitness gain (SARS-CoV-2 ORF3A) | yeast fitness gain (SARS-CoV-2 ORF7A) |
| --- | --- | --- | --- | --- | --- | --- | --- | --- | --- | --- | --- | --- | --- | --- | --- | --- | --- | --- | --- | --- | --- | --- | --- | --- | --- | --- |
| B1 | inactive: 0.0394 | inactive: 0.0555 | inactive: 0.00472 | inactive: -0.0146 | inactive: -0.416 | inactive: 0.021 | inactive: -0.115 | inactive: -0.0818 | inactive: 0.0363 | inactive: -0.0283 | inactive: -0.175 | inactive: -0.054 | inactive: -0.0348 | inactive: 0.00526 | inactive: 0.0328 | inactive: -0.0834 | inactive: 0.0274 | inactive: 0.0224 | inactive: 0.0283 | inactive: -0.121 | inactive: -0.171 | – | – | – | – | – |
| B2 | inactive: 0.0116 | inactive: -0.0403 | inactive: 0.0514 | inactive: -0.00433 | – | – | inactive: -0.089 | – | inactive: 0.0973 | inactive: 0.0143 | inactive: 0.00338 | inactive: 0.0641 | inactive: 0.0819 | inactive: 0.00367 | inactive: -0.0118 | inactive: -0.0156 | inactive: -0.0669 | inactive: 0.0315 | inactive: -0.0477 | inactive: -0.149 | inactive: -0.159 | inactive: 0.0655 | inactive: -0.0206 | inactive: -0.035 | inactive: -0.0488 | inactive: 0.00222 |
| B3 | inactive: 0.232 | inactive: -0.0329 | inactive: -0.205 | inactive: -0.131 | inactive: 0.0413 | inactive: -0.00814 | inactive: -0.529 | active: 0.96 | inactive: -0.182 | inactive: 0.0795 | inactive: 0.0123 | inactive: -0.431 | inactive: 0.0286 | inactive: -0.0351 | inactive: -0.0621 | inactive: -0.0541 | inactive: 0.379 | inactive: -0.0453 | inactive: -0.0735 | inactive: 0.0722 | inactive: -0.109 | inactive: -0.222 | inactive: -0.0382 | inactive: 0.0553 | inactive: 0.329 | inactive: 0.624 |
| B4 | inactive: 0.012 | inactive: 0.00698 | inactive: 0.0927 | inactive: 0.0234 | inactive: 0.0358 | – | inactive: -0.0373 | inactive: -0.0597 | inactive: 0.00163 | inactive: 0.00834 | inactive: -0.0266 | inactive: 0.0299 | inactive: -0.0525 | inactive: -0.00236 | inactive: 0.0568 | inactive: -0.0691 | inactive: -0.00185 | inactive: -0.0143 | inactive: 0.034 | – | inactive: -0.0673 | inactive: 0.00456 | inactive: -0.0236 | – | – | inactive: 0.016 |
| B5 | inactive: -0.0522 | inactive: -0.208 | inactive: 0.0405 | inactive: 0.0349 | inactive: -0.205 | inactive: -0.00938 | inactive: -0.0908 | inactive: 0.0529 | inactive: -0.000383 | inactive: -0.0869 | inactive: 0.091 | inactive: 0.0696 | – | inactive: 0.11 | inactive: -0.0975 | inactive: 0.00827 | inactive: -0.0471 | inactive: -0.00136 | inactive: -0.00188 | inactive: 0.0561 | inactive: -0.0737 | inactive: -0.228 | inactive: -0.0722 | inactive: -0.376 | inactive: 0.0249 | inactive: -0.0659 |
